Measurements taken from PubChem BioAssay (NCI).
Several values for one entry are separate records, joined by “and”; a condition that tells them apart may be missing. Identical values can stand only once.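 Method: 48-hour compound exposure of cells in 96-well plates, five concentrations, linear interpolation of endpoints. GI50 = concentration required for 50% inhibition of growth. TGI denotes the concentration required for complete inhibition of growth.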 Activity calls are given as the source filed them. No stated cut-off is given here; in the data, active means GI50 below about 0.43 µM; inactive means the rest. Bridge positions count the residues as written; N and C are the ends. Square brackets hold non-standard residues; d marks the D form. Peptide text beside a SMILES is read from it. * marks the point of attachment. ξ: configuration not given here. X21 = O=C(/C=C/C=C/C=C/C=C/C=C/C(=O)*)NC1=C(O)CCC1=O; Pro(4R-Me) = C[C@H]1CN[C@H](C(=O)O)C1; NMeA = CN[C@@H](C)C(=O)O; ξF = NC(Cc1ccccc1)C(=O)O; ξA = CC(N)C(=O)O

These molecules were tested on NCI-H322M lung (assay: NCI-60 cell line screen, 48 h).
Work on `O=C(C1OC1c1ccc(F)cc1)C12CC3CC(CC(C3)C1)C2` (centres undefined) yielded a TGI of 49.3 µM.
Molecule `O=C1/C(=C/c2ccco2)N=C(c2ccccc2)N1c1ccc(S(=O)(=O)Nc2nccs2)cc1` has a TGI greater than 100 µM.
In the case of `COC(=O)Cc1cc2c(cc1C(=O)c1ccc(N)cc1)OCO2`, the TGI is reported as greater than 100 µM.
`CCOC(=O)C1=C(C)NC(=O)NC1c1ccc(N(CCCl)CCCl)cc1Cl` (centres undefined) showed a TGI of 35.5 µM.
With `COc1cc(C2C3=C(COC3=O)N(CCO)c3cc4c(cc32)OCO4)cc(OC)c1OC` (centres undefined) the GI50 was 1.04 µM and 0.855 µM and the TGI was 12.5 µM and > 16.8 µM.
Molecule `c1cc[n+](C2c3ccccc3C([n+]3ccccc3)c3ccccc32)cc1` (centres undefined) has a GI50 of 21 µM and a TGI greater than 100 µM.
For `CN[C@@H](C)C(=O)N[C@H]1CCS[C@H]2CC(C)(C)[C@@H](C(=O)N[C@H]3c4ccccc4C[C@H]3OCC#CC#CCO[C@@H]3Cc4ccccc4[C@@H]3NC(=O)[C@H]3N4C(=O)[C@@H](NC(=O)[C@H](C)NC)CCS[C@H]4CC3(C)C)N2C1=O`, the GI50 was greater than 50 µM and the TGI was greater than 50 µM.
In the case of `Cc1nnc2n1-c1ccccc1-c1[nH]c3ccccc3c1C2`, the TGI is reported as greater than 100 µM.
`O=C(c1ccc(Cl)c(Cl)c1)N1CCN(C(=O)c2ccc(Cl)c(Cl)c2)C1=S` gave a GI50 of 19.8 µM and a TGI of 35 µM.
`CC[N+](CC)=c1cc2oc3cc(N(C)C)ccc3nc-2cc1C` was tested, and the GI50 was 1.16 µM and the TGI was 4.41 µM.
In the case of `NC1=NC(=O)[C@H](Cc2c[nH]c3ccccc23)N1C(=O)OCc1ccccc1`, the TGI is reported as greater than 100 µM.
`Cc1ccccc1OC(C)C(=O)NN1C(=O)CC(=O)NC1=S` (centres undefined) showed a TGI greater than 100 µM.
Work on `COC1=CC(=O)N(C(=O)C2CSC(C(CO)NC(=O)c3csc(/C=N/O)n3)=N2)C1` (centres undefined) yielded a TGI greater than 100 µM.
With `O=c1cc(-c2ccc3ccccc3c2)[nH]c2ncc(Cl)cc12` the TGI was greater than 100 µM.
Molecule `COc1ccc2c(c1)n([O-])c1cc(C#N)ccc1[n+]2=O` has a TGI of 0.899 µM.
With `CCCCCCCCCCc1c2nc(c(CCCCCCCCCC)c3ccc([nH]3)c(CCCCCCCCCC)c3ccc([nH]3)c(CCCCCCCCCC)c3nc1C=C3)C=C2` the TGI was greater than 100 µM.
Molecule `NS(=O)(=O)c1ccc(NC(=S)/N=C/c2c(O)c3ccccc3oc2=O)cc1` has a TGI greater than 100 µM.
For `O=c1[nH]c(=O)n(COCCOCc2ccccc2)cc1Nc1ccccc1`, the TGI was greater than 100 µM.
`C[C@H](C(=O)C12CC3CC(CC(C3)C1)C2)[C@H](O)c1ccccc1` was tested, and the TGI was 82.4 µM.
`CCCCCCCCCCC(=O)CC(=O)c1c(O)cccc1O` showed a TGI greater than 100 µM.
`O=S1c2ccccc2N=C(c2cccc3ccccc23)CC1c1cccc2ccccc12` (centres undefined) gave a TGI of 32.4 µM.
`CC(C)(C)/C(O)=C\c1nc2ccc(C(F)(F)F)cc2[nH]c1=O` gave a TGI greater than 100 µM.
In the case of `N#CC1(Nc2ccc(Br)cc2)CCCC1`, the GI50 is reported as greater than 100 µM and the TGI is reported as greater than 100 µM.
`CCNCCCNc1c2ccccc2nc2ccccc12` showed a TGI of 8.09 µM.
Work on `Cc1cc2c(c(S(=O)(=O)c3ccc(Cl)cc3[N+](=O)[O-])c1)NCCC2` yielded a TGI greater than 100 µM.
`O=C(CC1(O)C(=O)Nc2c(Cl)cc(Cl)cc21)c1ccc(Br)cc1` (centres undefined) was tested, and the TGI was 30 µM.
`COc1nc(-c2c[nH]c3ccccc23)cnc1N` was tested, and the TGI was greater than 100 µM.
`CCOC(=O)[C@H]1O[C@@H]1C(=O)NC(CC(C)C)C(=O)NCCC(C)C` (some centres undefined) was tested, and the TGI was greater than 100 µM.
In the case of `C=CC(=O)C#CC#CC/C=C\CCCCCCC`, the TGI is reported as greater than 20.6 µM and the outcome is reported as “inactive”.
Work on `Cc1nc2ccccc2nc1NNc1ccccc1` yielded a TGI greater than 100 µM.
`COC(c1ccccc1)C(c1ccccc1)N1CCOCC1` (centres undefined) was tested, and the TGI was greater than 100 µM.
In the case of `C=C(CBr)CCCOCc1ccccc1`, the TGI is reported as greater than 100 µM.
Molecule `Nc1ccc(S(=O)(=O)c2ccc(N)cc2)cc1` has a GI50 greater than 100 µM and a TGI greater than 100 µM.
For `CC/C=C\C/C=C\C/C=C\CCCCCCCC(=O)OC`, the TGI was greater than 100 µM.
Molecule `CC1CCC2C(C)(C)CC3(C)CCC1C23O` (centres undefined) has a TGI of 58.3 µM.
Molecule `O=C1C[C@@H](Sc2ccccc2)C2(OCCO2)C2ON3CCCC[C@H]3[C@H]12` (some centres undefined) has a TGI of 27.3 µM.
For `COc1cc2c(/C=C3/C(=O)Nc4c3ccc3ccccc43)c(Cl)n(C)c2cc1C`, the GI50 was less than 0.0343 µM and the TGI was 11.5 µM.
With `NNC1=Nc2ccc(Cl)cc2C(=S)N2CSCC12` (centres undefined) the TGI was greater than 100 µM.
In the case of `CSc1nc(-c2cc3ccccc3o2)cc(-c2ccc(Cl)cc2)c1C#N`, the GI50 is reported as greater than 65.3 µM and the TGI is reported as greater than 100 µM.
For `COc1cc(/C=C(\NC(=O)c2ccccc2)c2nc3[nH]c(=S)[nH]c(=O)c3[nH]2)cc(OC)c1OC`, the TGI was greater than 100 µM.
Molecule `S=C(S)NCCNC(=S)S.[Cu+2]` has a GI50 greater than 100 µM and a TGI greater than 100 µM.
`COc1ccc(/C(C)=C(\c2ccc(Cl)cc2)c2ccc(OCCN3CCCCC3)cc2)cc1` gave a GI50 of 4.94 µM and a TGI of 12.3 µM.
In the case of `C#Cc1cc(-c2nc3ccccc3s2)ccc1N`, the TGI is reported as 46 µM.
`CCO/C(O)=C(/C(=N)N1CCOCC1)C(=O)Nc1ccc(Cl)cc1` showed a TGI greater than 100 µM.
`CC1NC(=O)[C@H](C)N(C)C(=O)[C@@H]2CCCN2C(=O)[C@@H](NC(=O)C(Cc2ccccc2)NC(=O)/C=C/C=C/C=C/C=C/C=C/C(=O)NC2=C(O)CCC2=O)COC(=O)[C@@H]2C[C@@H](C)CN2C1=O` (stereo partly drawn) (X21-[ξF]SP[NMeA][ξA][Pro(4R-Me)]; ester 2-C) was tested, and the TGI was greater than 100 µM.
`NC(CCC(=O)Nc1ccc(O)cc1)C(=O)O` (centres undefined) was tested, and the TGI was greater than 100 µM.
`OCCCC(O)(c1ccccc1)c1ccccc1` gave a TGI greater than 100 µM.
`COc1cccc(C2=C(c3cn(C)c4ccc(Cl)cc34)C(=O)NC2=O)c1` was tested, and the GI50 was 9.41 µM and the TGI was greater than 22.2 µM.
For `O=C1/C=C/[C@@H](O)[C@@H]2C[C@@H](O)C[C@H]2/C=C/CCC[C@H](CCOCc2ccccc2)O1`, the GI50 was 0.0785 µM and the TGI was greater than 100 µM.
Work on `O=C(Cc1n[nH]c(=O)c2ccccc12)OCc1c(Cl)cccc1Cl` yielded a GI50 greater than 100 µM and a TGI greater than 100 µM.
For `Cc1cc(C(=O)NCCN(C)C)c2nc3ccccc3cc2c1`, the TGI was 6.87 µM.
`Nc1nccc2c1ncn2[C@H]1C[C@H](O)[C@@H](CO)O1` showed a TGI greater than 100 µM.
`CC1CC[C@@]23CCC4(C)[C@@](C=CC5[C@@]6(C)CCC(=O)C(C)(C)C6CC[C@]54C)(OC2=O)[C@@H]3[C@H]1C` (some centres undefined) gave a TGI greater than 100 µM.
Work on `CN(C)CCCNc1ccnc2cccc([N+](=O)[O-])c12` yielded a TGI of 46.5 µM.
`C[CH2][Sn]([CH2]C)([O]C(=O)c1ccccc1F)[O]C(=O)c1ccccc1F` was tested, and the GI50 was greater than 77.9 µM and the TGI was greater than 100 µM.
In the case of `N#Cc1c(N)c2c(c(-c3ccccc3)c1-c1ccccc1)C(=O)N(N)C2=O`, the TGI is reported as greater than 100 µM.
In the case of `COc1cc(Nc2ccnc(NCCNc3ccnc4cc(Cl)ccc34)n2)cc(OC)c1`, the GI50 is reported as 1.89 µM and the TGI is reported as 5.71 µM.
Work on `O=C(O)c1ccc(C(=O)Nc2cccc3ccccc23)c(C(=O)O)c1` yielded a TGI greater than 100 µM.
`O=C1C(=O)c2cc([N+](=O)[O-])ccc2-c2ccc([N+](=O)[O-])cc21` was tested, and the TGI was 4.09 µM.
With `O=C(CC(=O)n1nc(-c2ccccc2)c(N=Nc2ccccc2Cl)c1-c1ccccc1)Nc1ccc(Cl)cc1` the TGI was greater than 100 µM.
`CC(C)C(=O)OCN(C)c1nc(N(C)COC(=O)C(C)C)nc(N(C)COC(=O)C(C)C)n1` gave a TGI greater than 100 µM.
`COc1cc2c(c(OC)c1OC)-c1ccc(SC)c(=O)cc1[C@@H](NCc1ccccc1[N+](=O)[O-])CC2` showed a TGI greater than 100 µM.
Molecule `C/C=C(/C)C(=O)O[C@H]1CCN2CC=C(COC(=O)[C@@](O)([C@H](C)OC)C(C)(C)O)[C@H]12` has a TGI greater than 100 µM.
`CCCCCC(=O)Nc1n[nH]nc1C#N` gave a TGI greater than 100 µM.
For `c1ccc2c(c1)nnn2CN1CCOCC1`, the TGI was greater than 100 µM.
`CCOC(=O)CC[C@H](NC(=O)c1[nH]cnc1/N=N/N(C)C)C(=O)OCC` was tested, and the TGI was greater than 100 µM.
`Cc1cc2c(O)c(c1)CN(Cc1ccccc1)Cc1cc(C)cc(c1O)CN(Cc1ccccc1)Cc1cc(C)cc(c1O)CN(Cc1ccccc1)C2` showed a TGI greater than 100 µM.
Work on `CC(C)(C)OC(=O)NCCC1SC2C=CC1C2` (centres undefined) yielded a TGI greater than 100 µM.
`COc1ccccc1N1C(=O)CSC1c1c[nH]c2ccccc12` (centres undefined) gave a TGI greater than 100 µM.
`O=C(c1ccc(Cl)cc1)N(C(=S)OC12CC3CC(CC(C3)C1)C2)c1ccccc1` showed a TGI greater than 100 µM.
`NC(N)=NN=C(c1ccccc1)c1ccccc1` showed a GI50 of 5.92 µM and a TGI greater than 100 µM.
